Test results published in the RNAGym collection of RNA variant scans (doi:10.7554/elife.90254).
The source gives no read counts; variants with many changes may rest on few reads.

B1: LINE1-full (parent)
chain: UACGUAGGUGGUUUUCCCCUGAUAGUGCUAAGGGGGCCUGGAAGUUUGGACUGGGCAGAGCUCAACACAGCGUGGCAAAGUGGCUGUGGCUAGACUGCCUCUCUGGAUUCCUCGUCACUCAGCAGGGCAUCUCUGAGAGAAAUGCC

Variants of: B1
Test: self-cleavage, relative activity (ratio to wild type); higher = more cleavage; in vitro, sequencing; the parent is a self-cleaving ribozyme
In the case of U20C G41A U132G A142G, the self-cleavage is reported as 2.06.
Work on G33U A42G A107G yielded a self-cleavage of 0.5.
Variant U12C U39C U73C A92G C128G C131U has a self-cleavage of 0.
Work on G72A U81A U108C C133U yielded a self-cleavage of 2.47.
Work on C3U U39C U134C yielded a self-cleavage of 0.56.
Work on A124U A129G A142G yielded a self-cleavage of 1.84.
Work on U52A C61U U102C G114A A121G yielded a self-cleavage of 0.02.
U26A G32U G33A A77G U109A gave a self-cleavage of 0.77.
In the case of A24U U73C A107G G144A, the self-cleavage is reported as 1.38.
For U29A U46C U73C U87C, the self-cleavage was 1.15.
With G7U U85C U100A C116U G126U A129U the self-cleavage was 0.09.
With U12C U39A U96C C146A the self-cleavage was 0.45.
U15C C17G A22G G74A G122C showed a self-cleavage of 1.05.
For A22U A42G A50G C56U A65G G122A A136G, the self-cleavage was 0.06.
With A43G G83A U109A A117C A141U the self-cleavage was 1.48.
Work on U29A A94U U115C A141G C145U yielded a self-cleavage of 0.59.
Variant U39C U87C U102A A140G has a self-cleavage of 0.
A31G G83A U85C C146U gave a self-cleavage of 0.13.
U1C U9C G11A A57U A124G showed a self-cleavage of 0.11.
U26C C51U U91C C111A gave a self-cleavage of 0.77.
U12C A24U G35A showed a self-cleavage of 1.01.
Variant U14C G35A A59G G75C C76U U102A has a self-cleavage of 0.05.
In the case of U14C U62A A121C, the self-cleavage is reported as 0.17.
Work on A24G U87C U130C yielded a self-cleavage of 0.33.
With A24U A31U A78G U85C the self-cleavage was 0.14.
In the case of U15C A67U A107G, the self-cleavage is reported as 0.19.
For U9A G55A C103A A117G U134C A138G, the self-cleavage was 0.22.
Work on U15C U20A A65G yielded a self-cleavage of 0.11.
Work on U9C U46C U52G yielded a self-cleavage of 1.12.
With A42U U52C A141G the self-cleavage was 1.25.
U47C U73A U104C A121G gave a self-cleavage of 1.67.
A59U G80A A94G G97A A142G gave a self-cleavage of 0.23.
A24G G86A A142G showed a self-cleavage of 0.03.
Variant U1C A78G A94U A117C has a self-cleavage of 0.33.
Variant U1C A69U U102C A141G has a self-cleavage of 0.
With U15C U96C A136G the self-cleavage was 0.14.
With G7U U47C C61U U81C A121U A136G the self-cleavage was 0.04.
Work on U39A A65G A79G A141G yielded a self-cleavage of 0.13.
U87C U96A G127U showed a self-cleavage of 0.13.
With G33A G88A A107G A117G the self-cleavage was 0.1.
For U9A C19U U130A U143A, the self-cleavage was 0.83.
A57U A65C U134A gave a self-cleavage of 0.03.
Work on A65G A117G A138U yielded a self-cleavage of 0.
With U14C A77U A92U the self-cleavage was 0.88.
Work on U39A C76U U143C yielded a self-cleavage of 1.86.
For A2G A77G U134A, the self-cleavage was 1.23.
Work on U15A G49U A107G yielded a self-cleavage of 0.64.
In the case of A24U A43G G82A, the self-cleavage is reported as 1.15.
Work on A42U U91C A140G yielded a self-cleavage of 0.49.
Variant U39G A42G U132A has a self-cleavage of 1.24.
Variant U20C A67G A69G has a self-cleavage of 0.
Variant A65G U115C A138G has a self-cleavage of 0.14.
Variant A42U U104C G106A A129G has a self-cleavage of 1.69.
U12G G55A A69U C95U U130C showed a self-cleavage of 0.05.
Work on U39A A43G U45A A78G yielded a self-cleavage of 1.02.
With U47C G82U A136U the self-cleavage was 1.62.
Work on G4A G60U C63U A65G U134C yielded a self-cleavage of 0.06.
Variant U15C U100C A124G has a self-cleavage of 1.74.
U5A C28U A77U C118A U130C gave a self-cleavage of 1.5.
In the case of U100C A124G A141G, the self-cleavage is reported as 0.98.
U45C U85A U143A showed a self-cleavage of 0.08.
For U14A G48U A136G, the self-cleavage was 1.84.
U9C U26A C71U A94G A117G gave a self-cleavage of 0.51.
In the case of U13C U14C U143A, the self-cleavage is reported as 2.3.
U20A G35A U39A U85A U91C A107G showed a self-cleavage of 0.06.
U5C C19U U102A U119C gave a self-cleavage of 0.78.
U39A G58U A78G A121U U143A showed a self-cleavage of 0.01.
A22U A77U A94U showed a self-cleavage of 0.31.
Variant U5C G54A A107U has a self-cleavage of 0.51.
In the case of U14C U73C G93A A129G A141G, the self-cleavage is reported as 0.
In the case of U15A U102C U115C, the self-cleavage is reported as 0.
U13C U96A U104A gave a self-cleavage of 0.03.
Variant G33A A77U U104C U132A has a self-cleavage of 1.02.
In the case of U9A U39C U87A A124G, the self-cleavage is reported as 0.
In the case of U47C U87A A141G, the self-cleavage is reported as 0.21.
In the case of G34A U115C U143C, the self-cleavage is reported as 1.29.
In the case of U62C A64U U85C, the self-cleavage is reported as 0.06.
For U47C G48A A107U, the self-cleavage was 1.82.
Work on U85C A94G A142G yielded a self-cleavage of 0.4.
Work on U13C U14C G105A G126U yielded a self-cleavage of 1.07.
U39A A92U A138U A141G gave a self-cleavage of 0.66.
In the case of U13C U52A A65U A77G, the self-cleavage is reported as 0.35.
Variant U12G G40A A69G has a self-cleavage of 0.72.
For U13A A77G A138G, the self-cleavage was 2.45.
With G11A A30U U109C A141G the self-cleavage was 1.25.
In the case of A30U U47A C145G, the self-cleavage is reported as 0.65.
Variant U14C G35A U81A has a self-cleavage of 1.9.
In the case of A6G A136U A138G, the self-cleavage is reported as 0.
Variant C3A A22G C113U has a self-cleavage of 0.86.
Work on A42C U62C U130C yielded a self-cleavage of 0.
For U13C U102C A129G, the self-cleavage was 0.68.
Variant A64U U104A U132C U134C has a self-cleavage of 0.
With U26C A57U A136G the self-cleavage was 0.18.
With U102C U109C U132C C145U the self-cleavage was 1.2.
A57U A65G U104C showed a self-cleavage of 0.
G34A G88U U112C gave a self-cleavage of 0.04.
For C28U U39C A64U U96A A129G, the self-cleavage was 0.01.
In the case of C19U U26C A42G U52C, the self-cleavage is reported as 1.38.
For A59G G122U U134C, the self-cleavage was 0.09.
Variant U46C A79U U112C has a self-cleavage of 0.
A57G U73C G126A gave a self-cleavage of 1.26.
In the case of U20C U108C A136U, the self-cleavage is reported as 1.79.
U1C U100C A140G showed a self-cleavage of 1.24.
G41C A64U U96C gave a self-cleavage of 0.04.
In the case of U45C U62C A136G, the self-cleavage is reported as 0.
Work on A57G U81A A121C A141G yielded a self-cleavage of 1.58.
Work on U47C U87G A117U G144A yielded a self-cleavage of 0.53.
G32A A59U U85C C116U A141G showed a self-cleavage of 0.1.
Work on A69C U109C A121G yielded a self-cleavage of 0.27.
Variant U23C G72A U85C has a self-cleavage of 0.17.
In the case of A2G A69G U109A, the self-cleavage is reported as 0.
Work on U20C U73A A124G yielded a self-cleavage of 1.5.
With C3U G55A A77G G114A the self-cleavage was 0.22.
G10A C56A U112C gave a self-cleavage of 0.03.
For A2G A59U U108C, the self-cleavage was 0.85.
For U52G A140G U143C, the self-cleavage was 0.5.
In the case of U12C A42G A136G, the self-cleavage is reported as 1.33.
Work on U12C U87A U112C A129U yielded a self-cleavage of 0.04.
In the case of U46C A69G A94G, the self-cleavage is reported as 1.62.
Variant U13G A50G A77U A79G has a self-cleavage of 0.
Work on A2G A140G A142G yielded a self-cleavage of 0.57.
Variant U47C C71U A79U A92G U115C A129U has a self-cleavage of 0.
For G11A C19U U134C, the self-cleavage was 1.25.
U13C A79G A94G showed a self-cleavage of 0.
Work on U15C A57G A67U U104A yielded a self-cleavage of 0.
Work on A6C U14C A79G C146A yielded a self-cleavage of 0.53.
Variant G49A A59U A79G has a self-cleavage of 0.62.
For A22G U45C U46C C84U U85A U115A A138C, the self-cleavage was 0.09.
A2G U87A G126A G139A showed a self-cleavage of 0.28.
With G21A A59G U104C A117U A124G A136G the self-cleavage was 0.
With G35A U73A A78C the self-cleavage was 0.32.
U20A U45C A67G U73C A79U C123U gave a self-cleavage of 2.8.
In the case of A67U U108C A138U A142G, the self-cleavage is reported as 0.35.
C19U A50G U100A gave a self-cleavage of 0.28.
In the case of U119A A129C A141G, the self-cleavage is reported as 1.46.
For A79G U112C U132A, the self-cleavage was 0.99.
Variant G36A A94G U102C has a self-cleavage of 0.32.
For A2G A107U U108C, the self-cleavage was 0.81.
U20A A30G U46A A57G showed a self-cleavage of 1.08.
Variant A2G A138G A140U has a self-cleavage of 0.
Work on G10A C17U A22G yielded a self-cleavage of 0.93.
G4A U13A A117G A124G gave a self-cleavage of 0.61.
Work on U46C C71U U96A A117G C120U yielded a self-cleavage of 0.06.
G49A U115C A142C gave a self-cleavage of 0.63.
With U52A A67U A77C U132C the self-cleavage was 0.07.
A24G U62A A77G showed a self-cleavage of 0.06.
C19U A22G U115A A136U A138G U143C gave a self-cleavage of 0.91.
For A6U G33A U73C, the self-cleavage was 0.91.
U39A A78G A79C U132C A141C showed a self-cleavage of 1.53.
With U62A A77G U96C the self-cleavage was 0.16.
For U15C A30G U130C, the self-cleavage was 1.07.
G27U A65G C95U gave a self-cleavage of 0.06.
In the case of A22G U26A C56U A129G, the self-cleavage is reported as 0.12.
Variant U5G A138G U143A has a self-cleavage of 1.75.
In the case of A78G U87A A107U U108C, the self-cleavage is reported as 0.04.
Variant U62A A94G U134A has a self-cleavage of 0.
U13C U20A U26C U104A gave a self-cleavage of 1.13.
Variant U45G A67G U119A A140G has a self-cleavage of 0.7.
For U12C U13C C76U U87C U109C, the self-cleavage was 0.34.
Work on A79G U85C A136G yielded a self-cleavage of 0.16.
For A30U G34A A42G A67G A77U G122A, the self-cleavage was 0.31.
Variant U14C U39G A78G has a self-cleavage of 1.23.
U29A U62C C71A gave a self-cleavage of 0.02.
For G89A A92G U96C A138U, the self-cleavage was 0.14.
In the case of A43U U52A A136G A140G, the self-cleavage is reported as 1.26.
Work on U62A A64G A78G A136G yielded a self-cleavage of 0.2.
Work on U13C U23C A69U yielded a self-cleavage of 0.
